# In paper PMC4336329 (PLoS ONE, 2015):
# Among all 310,000 compounds or so, about 2,200 (0.71%) showed an effect of 50% or more. The effect is printed as a negative number. This is one part of the list.
# Biological target: human ether-à-go-go-related gene (hERG) potassium channel (human, UniProt Q12809)
# Experiment: primary screen, population patch clamp on CHO cells stably expressing hERG
# human ether-à-go-go-related gene (hERG) potassium channel, sequence (Q12809 whole entry, looked up): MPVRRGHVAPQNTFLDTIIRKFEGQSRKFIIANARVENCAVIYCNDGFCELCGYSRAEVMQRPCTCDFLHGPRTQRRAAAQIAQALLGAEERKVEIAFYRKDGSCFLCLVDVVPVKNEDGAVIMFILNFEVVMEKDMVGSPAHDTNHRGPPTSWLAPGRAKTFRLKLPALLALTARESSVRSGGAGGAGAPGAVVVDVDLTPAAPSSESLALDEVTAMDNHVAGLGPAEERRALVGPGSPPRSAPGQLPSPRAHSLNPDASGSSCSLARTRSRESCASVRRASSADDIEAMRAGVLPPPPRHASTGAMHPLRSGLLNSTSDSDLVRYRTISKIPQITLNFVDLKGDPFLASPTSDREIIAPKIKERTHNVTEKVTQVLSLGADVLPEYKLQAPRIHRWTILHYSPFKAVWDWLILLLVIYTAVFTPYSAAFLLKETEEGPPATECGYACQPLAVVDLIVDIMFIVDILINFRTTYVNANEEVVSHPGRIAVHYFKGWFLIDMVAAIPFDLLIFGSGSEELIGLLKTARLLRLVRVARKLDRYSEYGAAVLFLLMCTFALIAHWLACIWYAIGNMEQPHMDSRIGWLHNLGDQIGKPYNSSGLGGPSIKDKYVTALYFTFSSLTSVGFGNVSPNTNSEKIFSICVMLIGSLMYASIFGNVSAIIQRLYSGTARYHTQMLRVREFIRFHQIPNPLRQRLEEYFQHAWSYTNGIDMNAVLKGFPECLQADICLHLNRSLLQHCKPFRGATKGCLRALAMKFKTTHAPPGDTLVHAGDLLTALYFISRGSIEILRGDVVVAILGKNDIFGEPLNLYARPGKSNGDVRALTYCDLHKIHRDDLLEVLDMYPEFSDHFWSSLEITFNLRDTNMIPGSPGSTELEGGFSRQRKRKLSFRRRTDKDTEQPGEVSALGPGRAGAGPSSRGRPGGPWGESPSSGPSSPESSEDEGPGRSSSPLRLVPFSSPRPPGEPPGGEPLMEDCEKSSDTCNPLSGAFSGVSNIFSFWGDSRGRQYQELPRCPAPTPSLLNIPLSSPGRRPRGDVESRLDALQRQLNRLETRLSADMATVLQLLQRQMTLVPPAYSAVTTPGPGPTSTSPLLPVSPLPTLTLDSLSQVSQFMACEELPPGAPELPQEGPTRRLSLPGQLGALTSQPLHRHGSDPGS
row,SMILES,"hERG current change (%, negative = inhibition) at 1uM [%]"
1,CC(=O)Nc1ccc(C2=NNC(=Nc3ccc(S(=O)(=O)N4CCOCC4)cc3)SC2)cc1,9.84
2,CCc1ccc(NC(=O)c2nc(S(=O)(=O)Cc3ccccc3)ncc2Cl)cc1,20.7
3,NC(=O)CSc1nc2ccccc2c(=O)n1Cc1ccco1,-15.1
4,CC(=O)NCCNc1nc2c(-c3cccc(C)c3)nnn2c2ccccc12,13.5
5,Cc1ccsc1C(=O)N1CCCC(N2CCN(c3cccc(Cl)c3)CC2)C1 (stereo not drawn),-0.726
6,CC1=CC(=Nc2c(C)n(C)n(-c3ccccc3)c2=O)C=C(C)C1=O,16.9
7,COc1ccccc1NC(=O)CNC(=O)c1ccc(F)cc1,5.22
8,Cc1ccccc1NC(=O)c1nc2nccc(C)n2n1,11.2
9,CCC(Sc1nc2ccc(N)cc2s1)C(=O)Nc1nccs1 (stereo not drawn),9.96
10,Cc1cc(C(=O)N[C@H](c2ccccc2)[C@@]2(C)C[C@@H]2[C@@H](C)C(=O)Nc2ccc3ccccc3c2)n(C)n1,10.3
11,CC(C)c1cc(-c2cc(-c3ccc(Cl)cc3)on2)nc(NC2CCCC2)n1,9.56
12,CC1CN(c2nc3ccccc3cc2-c2ccccc2)CC(C)O1 (stereo not drawn),10.3
13,COc1ccc(NC(=O)CN2CCC(NC(=O)C3CCCCC3)CC2)cc1,-3.15
14,O=C(CCCN1C(=O)NC2(CCCC2)C1=O)Nc1ccc(F)cc1,12.1
15,Cn1c(O)c(C=Nc2ccc(Br)cc2)sc1=O,15.2
16,C1CNC(C23CC4CC(CC(C4)C2)C3)=N1,16.7
17,CCC(=O)N1c2ccc(S(=O)(=O)NC3CCCCC3)cc2CC1C (stereo not drawn),4.96
18,Cc1ccc(NC(=O)c2ccc(CSc3ncnc4nc[nH]c34)cc2)c(C)c1,8.32
19,COc1ccc(S(=O)(=O)n2ccc(C(C)Oc3ccc(-c4ccccc4)c(F)c3)n2)cc1 (stereo not drawn),13.4
20,Brc1ccc(-c2noc(-c3ccccn3)n2)o1,8.06
21,COc1ccc(C/C(N)=N/n2cnnc2)cc1,12
22,Cc1ccc(S(=O)(=O)NC2CCCC2)cc1C(N)=O,9.63
23,COC(=O)c1cccc(NC(=O)Nc2ccc(Cl)c(Cl)c2)c1,7.07

row,SMILES,"hERG current change (%, negative = inhibition) at 1uM [%]"
1,COc1ccc2cc(CCNC(=O)c3c(-c4ccccc4Cl)noc3C)c(=O)[nH]c2c1,9.53
2,Cc1ccccc1NC(=O)c1cccc2nccnc12,6.18
3,Cc1cc(C)n(-c2ccc(C(=O)Nc3ccccn3)cc2)n1,8.48
4,Cc1ccc(NC(=O)CN2C(=O)S/C(=C\c3ccc(-c4cccc(C(=O)O)c4C)o3)C2=O)cc1,-4.13
5,CC(=O)c1cc(C(=O)N2CCCC(C(=O)c3ccc(Cl)cc3)C2)cs1 (stereo not drawn),-10
6,O=C(COC(=O)CSc1ccc2ccccc2c1)NC1CCCC1,5.98
7,COc1ccc(C(CCc2ccc(C)o2)NC(=O)Nc2ccc(OC)cc2OC)cc1 (stereo not drawn),-6.54
8,Cc1ccc(NP(=O)(c2ccc(N(C)C)cc2NC(=O)c2cccs2)N2CCOCC2)cc1Cl (stereo not drawn),-0.549
9,COc1ccc(-c2[nH]ncc2CN2CCC(O)(c3ccc(Cl)cc3)CC2)cc1,-27.5
10,Cc1ccccc1-n1c(SCc2c(C)noc2C)nnc1-c1c[nH]c2ccccc12,9.91
11,CNC(=O)c1cc2ccccc2o1,4.84
12,Cc1ccc(/C=C/C(=O)O)cc1S(=O)(=O)NCc1cccnc1,11.8
13,COc1cccc(/C=N/NC(=O)c2c(-c3ccccc3)noc2C)c1O,9.26
14,O=S(=O)(NC1CC2CCC1C2)c1ccc2c(c1)OCCO2 (stereo not drawn),10.6
15,CCC(=O)OC1(C)C(=O)C=C2C=C(c3ccc(C#N)cc3)OC=C2C1=O (stereo not drawn),3.14
16,Nc1ccc(Nc2ccncc2[N+](=O)[O-])cc1,15.5
17,CN(CC(=O)Nc1ccc(Cl)c(C(F)(F)F)c1)C(=O)C1CSC2(C)CCC(=O)N12 (stereo not drawn),12.4
18,CCOC(=O)C1Nc2ccc(OC(F)(F)F)cc2C2C=CCC12 (stereo not drawn),9.33
19,C/C(=N\Nc1nc(-c2ccccn2)nc2ccccc12)c1ccc(F)cc1,12.5
20,Cc1ccc(S(=O)(=O)N2CCN(C(=O)CCCN3C(=O)NC4(CCCC4)C3=O)CC2)cc1C,12.8
21,CCOc1ccc(C(=O)Nc2ccc(S(=O)(=O)N3CCOCC3)cc2)cc1OCC,4.08
22,CCN1CCN(c2ccc(S(=O)(=O)N3CCCCC3)cc2NC(=O)Cc2ccccc2)CC1,-4.14
23,COc1ccc(CN(C)C(=O)c2ccc(NC(=O)CC3SC(N4CCCC4)=NC3=O)cc2)c(OC)c1OC (stereo not drawn),18.8

row,SMILES,"hERG current change (%, negative = inhibition) at 1uM [%]"
1,O=C(/C=C/c1ccccc1[N+](=O)[O-])OCC(=O)N1CCCC1,17.4
2,CCOC(=O)CNC(=O)c1cnn2cccnc12,5.04
3,C=CCn1cc(C(=O)NCCCN(CC)CC)c(=O)c2cc(S(=O)(=O)N3CCC(C)CC3)ccc21,4.65
4,Cc1nn(-c2ccccc2)c(C)c1NC(=O)COC(=O)Cc1ccccc1F,3.85
5,Cc1csc2c(N3CCC(C(=O)O)CC3)ncnc12,7.44
6,COc1ccc(/C=C2\SC(=S)N(CCC(=O)N3CCCCC3)C2=O)cc1,-2.37
7,O=C(NCc1ccco1)c1cccs1,11.1
8,CCCCOC(=O)Nc1nnc(CC)s1,16.7
9,CCCCOc1ccc(-c2nnn(CC(=O)c3c[nH]c4ccccc34)n2)cc1,19.5
10,CC(C)C(NC(=O)C12CC3CC(CC(C3)C1)C2)C(=O)O (stereo not drawn),3.71
11,COc1ccc(OC(C)C(=O)Nc2cccc([N+](=O)[O-])c2)cc1 (stereo not drawn),-10.5
12,C=C(C)COc1ccc2c(C)c(CC(=O)N3C[C@H]4C[C@@H](C3)c3cccc(=O)n3C4)c(=O)oc2c1C,-10.5
13,CCn1c(NCCc2ccc(OC)c(OC)c2)nc2c1c(=O)n(C)c(=O)n2C,9.13
14,CC1(c2nnc(-c3ccccc3)o2)CC(c2ccc(F)cc2)=NO1 (stereo not drawn),5.91
15,COc1ccccc1CNC(=O)C1CCN(S(=O)(=O)c2ccc3c(c2)NC(=O)CO3)CC1,8.4
16,O=C(Nc1ccccn1)C1CCN(C(=O)c2ccc(F)cc2)CC1,-0.638
17,Cc1c(Br)c([N+](=O)[O-])nn1CC(=O)NCc1ccccc1,1.49
18,Cn1c(CCNS(=O)(=O)c2ccccc2)nnc1SCc1cccnc1,16
19,COc1ccc(CC(=O)N2CCCC(CNC(=O)c3ccccc3Cl)C2)cc1 (stereo not drawn),9.19
20,O=C(Nc1ccc(N2CCOCC2)cc1)c1cc(-n2cnnc2)ccc1Cl,11.7
21,COc1ccc(CN(C(=O)CCC(=O)N2CCCCC2)c2nccs2)cc1OC,-2.89
22,Cc1ccc(S(=O)(=O)N2CCCC2)cc1C(=O)NC1CCCCC1,19.2
23,COC(=O)C1=C(C)N(c2cccc3ccccc23)C(=O)C1,-0.602

row,SMILES,"hERG current change (%, negative = inhibition) at 1uM [%]"
1,C=COCCNC(=O)C(=O)NC(C)C,0.875
2,Cc1ccc(CNS(=O)(=O)c2ccc(CN3C(=O)c4cccnc4C3=O)s2)o1,20.7
3,Cc1nn(C)c(C)c1/C=C/C(=O)c1cccs1,2.33
4,CC(C)C(=O)c1cn(Cc2ccccc2C#N)c2ccccc12,9.56
5,O=C1C2C3CC(C(Br)C3Br)C2C(=O)N1c1nccs1 (stereo not drawn),12.4
6,CC1(C)Cc2c(sc3nc(NCCN4CCOCC4)n4ncnc4c23)CO1,3.25
7,CN(C)S(=O)(=O)c1ccc(C(=O)Nc2nnc(-c3cccs3)o2)cc1,14.5
8,CCC1(C)Cc2c(c(=O)n(-c3ccccc3)c3ncnc(N)c23)CO1 (stereo not drawn),10.1
9,CCOC(=O)C1CCN(C(=O)CN(Cc2ccccc2)S(C)(=O)=O)CC1,3.31
10,CCCNC(=O)N1CCCC(C(=O)c2cccc(Cl)c2)C1 (stereo not drawn),6.91
11,COCCCNCC(=O)Nc1sc(C)c(C)c1C(=O)OC.O=C(O)C(=O)O,8.91
12,O=C(Nc1ccc2c(c1)OCO2)c1c(F)cccc1F,6.05
13,CC1CN(C(=O)c2ccc(S(=O)(=O)Nc3ccccc3Cl)cc2)CC(C)O1 (stereo not drawn),-2.72
14,Oc1ccc(-n2cnnn2)cc1,9.57
15,Cc1ccc(N=Nc2c(=O)[nH]n3c(C)cc(C)nc23)cc1,11.5
16,CCN1CCN(C(=S)Nc2ccccc2Cl)CC1,16.4
17,c1cn(CCCNc2ncnc3nc[nH]c23)cn1,12.5
18,CC(=O)Nc1ccc(/C=N\NC(=O)CNS(=O)(=O)c2ccc([N+](=O)[O-])cc2)cc1,9.81
19,CCc1cc(=O)oc2c(CN3CCCC3)c(O)c(Cl)cc12,-1.57
20,CC12CCC(C(=O)N(c3ccccn3)c3ccccn3)(OC1=O)C2(C)C (stereo not drawn),3.24
21,Cc1cc(C)n(C(=O)CCCC(=O)n2nc(C)cc2C)n1,7.36
